In all, about 110,000 compounds were measured (“z-score”: median about -0.1, highest 2% from about 2 on). Some of the results follow.

The test addresses Metabotropic glutamate receptor 8 (Rattus norvegicus) (UniProt P70579). The test can be described thus: rat mGluR8 modulators via GIRK flux, primary screen, cell-based, thallium flux, HTS (AID 488969). The following applies: HEK293 rat mGluR8, GIRK (G protein-gated inwardly rectifying potassium channel) thallium flux, FluoZin2; at 10 µM; stronger effect = higher value; submaximal glutamate (EC20) added with thallium.
Sequence of UniProt P70579 (P70579 whole entry, looked up): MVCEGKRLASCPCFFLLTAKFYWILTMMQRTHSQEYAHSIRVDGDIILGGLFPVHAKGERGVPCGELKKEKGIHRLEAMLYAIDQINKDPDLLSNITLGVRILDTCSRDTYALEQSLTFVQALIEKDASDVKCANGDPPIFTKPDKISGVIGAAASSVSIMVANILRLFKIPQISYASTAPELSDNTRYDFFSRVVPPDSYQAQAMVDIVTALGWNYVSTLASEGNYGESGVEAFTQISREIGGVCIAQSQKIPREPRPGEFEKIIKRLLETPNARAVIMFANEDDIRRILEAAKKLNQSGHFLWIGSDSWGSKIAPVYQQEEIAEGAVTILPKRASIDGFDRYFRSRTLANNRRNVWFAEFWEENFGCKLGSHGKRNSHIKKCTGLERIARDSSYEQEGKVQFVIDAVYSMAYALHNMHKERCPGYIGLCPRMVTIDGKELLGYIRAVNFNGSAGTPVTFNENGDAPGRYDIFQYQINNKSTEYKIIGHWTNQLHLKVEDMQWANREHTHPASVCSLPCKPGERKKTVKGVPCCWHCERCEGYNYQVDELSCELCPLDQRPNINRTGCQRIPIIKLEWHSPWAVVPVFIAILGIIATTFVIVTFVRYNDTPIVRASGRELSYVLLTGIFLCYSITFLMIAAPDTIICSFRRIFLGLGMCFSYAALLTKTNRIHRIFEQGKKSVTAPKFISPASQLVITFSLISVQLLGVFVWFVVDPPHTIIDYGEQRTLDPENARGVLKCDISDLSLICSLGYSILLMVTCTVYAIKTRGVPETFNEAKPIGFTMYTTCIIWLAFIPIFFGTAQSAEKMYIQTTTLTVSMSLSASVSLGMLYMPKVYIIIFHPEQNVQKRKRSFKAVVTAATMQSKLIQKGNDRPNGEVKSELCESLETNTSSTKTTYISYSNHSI
Consider `CCCCCCC1CC(C)(/C(C)=N/NC(N)=O)OC1=O` (configuration not stated), for which the z-score came to 0.0111.

In turn, `Cc1ccc(C(=O)NCCCC(=O)O)o1` registered a z-score of 1.06.

As to `COc1ccc(C2N(C(=O)N3CCOCC3)CCN2S(=O)(=O)c2ccc(C)cc2)cc1` (configuration not stated), the z-score was -0.384.

On to `O=C(c1ccco1)N(Cc1cccs1)C1CCS(=O)(=O)C1` (configuration not stated), for which the z-score stood at 0.56.

`COc1ccc(Br)cc1S(=O)(=O)N1CCCC1` had a z-score of -0.0684.

In turn, `O=C(COc1ccccc1)NC(=S)Nc1cccc(NC(=O)c2ccccc2Cl)c1` yielded a z-score of -0.164.

`Cc1ccc(Cn2ccc(NC(=O)c3cc(-c4cccc(Cl)c4)on3)n2)cc1` displayed a z-score of 0.187.

Regarding `COc1ccc(OCC(=O)NNC(=O)c2cc3ccccc3o2)cc1`, the z-score amounted to 1.23.

For `CCOC(=O)c1c(-c2ccc(C)o2)csc1NC(=O)CSc1ncn[nH]1`, the z-score is -0.179.

For `Cc1ccc(CN2C(=O)/C(=C\c3ccc(C(=O)NCc4cccnc4)cc3)Oc3ccccc32)cc1`, the z-score is -0.188.

For the compound `COc1cc(C(=O)Nc2cccc(-c3nc4cc(C)cc(C)c4o3)c2)cc(OC)c1OC`, the z-score was -0.408.

For the compound `CCCCOC(=O)Nc1nnc(CC)s1`, the z-score stood at 0.304.

As to `CC(NC(=O)C12CC3CC(CC(C3)C1)C2)c1ccc2c(c1)OCCO2` (configuration not stated), the z-score is -0.46.

`Clc1ccsc1-c1csc(-c2cccnc2)n1` displayed a z-score of -0.284.

`Nc1ccccc1S(=O)(=O)c1ccccc1N` displayed a z-score of 0.302.

In the case of `O=C(NCc1ccco1)C12CC3CC(CC(C3)C1)C2`, the z-score came to 0.135.

The compound `CC(=O)Oc1ccc(C(=O)Nc2nccs2)cc1` came in with a z-score of -0.419.

On to `Cc1ccc2nc(SC(C)C(=O)Nc3cccc([N+](=O)[O-])c3)[nH]c2c1` (configuration not stated), for which the z-score was -0.0685.

In turn, `CCCCOc1ccc(C(NC(=O)OCC)NC(=O)OCC)cc1` registered a z-score of 0.387.

As to `Cc1cc(=O)[nH]c(N/N=C/c2ccc(OC(=O)c3ccco3)cc2)n1`, the z-score came out at 0.159.

Compound `Cc1cccc(NC(=O)c2sc(Cl)nc2-c2ccccc2)c1` showed a z-score of -0.374.

Turning to `CC(=O)c1cc2c(cc1NC(=O)CCCC(=O)O)OCO2`, the z-score was determined as 0.188.

In turn, `CCOCC(=O)Nc1cc(OC)c(Cl)cc1OC` had a z-score of -0.0397.

Consider `Nn1c(SC/C=C/c2ccccc2)nnc1-c1ccncc1`, for which the z-score is -0.0688.

On to `COC(=O)c1ccc(CSc2nc3cc(Cl)ccc3s2)o1`, for which the z-score is -0.05.

With `C/C(=N/OCC(=O)NCCCCCCNC(=O)CO/N=C(/C)c1cccs1)c1cccs1`, the z-score is -0.0928.

For `CCN(CC)C(=O)CSc1nc2ccccc2c(=O)n1OC(C)C`, the z-score is -1.93.

`COc1ccc(CC(=O)Nc2ccc(-c3nnc(-c4ccccc4)o3)cc2)cc1` came in with a z-score of -0.584.

Take `CC(=O)Nc1ccc(OCC(O)CN2C(C)(C)CC(O)CC2(C)C)cc1` (configuration not stated): the z-score was -0.152.

As for `Cc1cc(S(=O)(=O)NC2CCCCC2)ccc1OCC(=O)NCc1cccnc1`, the z-score is -0.012.

Consider `CCOC(=O)c1c(C)[nH]c(C(=O)N/N=C/c2cccc(OC)c2)c1C`, for which the z-score was -0.9.

With `C=CCn1c(SCc2c(C)noc2C)nc2sc3c(c2c1=O)CCCCC3`, the z-score was -0.236.

For `O=C(c1ccccc1)C(CCC(CN1CCOCC1)C(=O)c1ccccc1)CN1CCOCC1` (configuration not stated), the z-score came out at 0.24.

In turn, `CCC(=NC1CC(C)(C)NC(C)(C)C1)C1=C(O)CC(C)(C)CC1=O` had a z-score of -0.141.

Compound `Fc1ccccc1/C=N/Nc1nn[nH]n1` yielded a z-score of -0.0496.

As for `CC1CC(O)(Cc2ccccc2)C(C)CN1C` (configuration not stated), the z-score is -0.335.

Regarding `Cc1ccc(S(=O)(=O)N2CCN(CC(=O)Nc3ccc([N+](=O)[O-])cc3)CC2)cc1C`, the z-score was -0.161.

`COC(=O)c1c(-c2ccc(Br)cc2)noc1N` displayed a z-score of -0.402.

With `O=C1CC(c2ccccc2)Cc2nc(N3CCc4ccccc4C3)ncc21` (configuration not stated), the z-score was found to be 0.392.

For `CCOC(=O)c1[nH]c(C(=O)O)c(CCC(=O)OC)c1C`, the z-score is -0.115.

For `O=C(Nc1ccc(C(F)(F)F)cc1)C1(c2ccccc2)CC1`, the z-score was -0.816.

The compound `C=CCn1c(SCn2nnc3ccccc3c2=O)nnc1-c1ccc(Cl)cc1` displayed a z-score of -0.876.

Regarding `COc1ccc(CCN2C(=O)NC(NC(=O)CC(C)C)(C(F)(F)F)C2=O)cc1OC` (configuration not stated), the z-score is -0.18.

In turn, `Brc1ccc(-c2nn3c(Cc4ccccc4)nnc3s2)o1` yielded a z-score of -1.76.

Compound `O=C1CC(=C(c2ccccc2)c2ccccc2)C(=O)N1CCCCN1CCN(c2cccc(Cl)c2)CC1` displayed a z-score of -0.136.

Regarding `CCc1cc2c(NCCN3CCCCC3)ncnc2s1`, the z-score was 0.793.

Take `COc1ccc(S(=O)(=O)NC2CCCCC2)cc1C`: the z-score is -0.174.

`CCOC(=O)c1ccc(NC2OC(=O)c3ccccc32)cc1` (configuration not stated) yielded a z-score of -0.214.

In turn, `Cc1ccc(S(=O)(=O)N2CCN(C(=O)c3cc4c(C)nn(-c5ccccc5)c4s3)CC2)cc1` came in with a z-score of -0.0453.

In the case of `O=C(CCl)c1ccc(Cc2ncc(C(F)(F)F)cc2Cl)s1`, the z-score was -0.0387.

Turning to `O=C(/C=C/c1ccc(F)cc1)Nc1nc2ccccc2[nH]1`, the z-score is -0.235.

The compound `CN(C)c1ccc(/C=C2/C(=O)N(c3ccc([N+](=O)[O-])cc3)N=C2N2CCOCC2)cc1` had a z-score of -0.0271.

`Cc1ccc(C(=O)COC(=O)CNC(=O)CN2C(=O)c3ccccc3C2=O)cc1` returned a z-score of -0.0776.

`Cc1cc(NC(=O)CC23CC4CC(C2)CC(CC(=O)Nc2cc(C)on2)(C4)C3)no1`: the z-score is -0.164.

`COc1ccc(CC(=O)N2N=C(C)CC2(O)c2cccnc2)cc1` (configuration not stated) yielded a z-score of -0.159.

Compound `CCN=C(N/N=C/c1ccc([N+](=O)[O-])cc1)SC` had a z-score of -0.246.

`Cc1ccc(S(=O)(=O)N2CCCCC2)cc1NC(=O)CCOc1ccccc1`: the z-score was -0.138.

On to `CCc1ccc(C(=O)CN2C(=O)C(C)N(c3ccc(C)cc3)C2=O)cc1` (configuration not stated), for which the z-score is -0.302.

`S=C(Nc1ccc(Cl)cc1)NC1CC2CCCC(C1)N2C1CC1` (configuration not stated) registered a z-score of 1.89.

For `Cc1ccc(C(=O)C2OC(=O)C(C)(C)C(=O)C2(C)C)cc1` (configuration not stated), the z-score amounted to 0.0435.

`CCn1c(-c2cc(Br)cc(OC)c2O)nc2cc(S(=O)(=O)N(C)C)ccc21` showed a z-score of -1.09.

For `CC(C)c1ccc(SCc2noc(C(=O)NCC3CCCO3)c2C(=O)O)cc1` (configuration not stated), the z-score is -0.368.

`O=C1Cc2ccccc2Sc2ccccc21` gave a z-score of -0.0326.

As to `Cc1nc(Cl)sc1C(=O)Nc1cccc2ccccc12`, the z-score is -0.365.

The compound `CC(C)CC(=O)OCc1cn(-c2ccccc2)nn1` yielded a z-score of 0.0165.

In turn, `O=C(Nc1cccc(F)c1)N(Cc1ccc(Cl)cc1)CC(O)C(F)(F)F` (configuration not stated) came in with a z-score of 0.0492.

In turn, `O=C(OCc1cnc(Cl)s1)c1cccc(Cl)c1` displayed a z-score of -0.021.

Compound `CN1CCN(C(=O)/C(=C/c2ccccc2)c2ccccc2)CC1` yielded a z-score of -0.295.

For the compound `CCCCC(=O)Nc1cc(OC)c(NC(=O)C2CCCCC2)cc1OC`, the z-score is -0.2.

With `CCOC(=O)N1CCN(C(=O)c2cc(-c3ccc(OCC)cc3)nc3ccccc23)CC1`, the z-score is -0.576.

Compound `Cc1cccc(C(C)Nc2ccc([N+](=O)[O-])cn2)c1` (configuration not stated) showed a z-score of -0.34.

`O=C(C1CCN(S(=O)(=O)c2cccs2)CC1)N1CCN(c2ccccc2)CC1` gave a z-score of -0.172.
